# From PubChem BioAssay AID686978 (National Center for Advancing Translational Sciences (NCATS), 2013)
# Hit rate of the full screen: of about 420,000 compounds, about 64,000 (15%) were called active. Inconclusive means that the source gave no clear call. Such entries were picked first, then a sample of the others. Calls come from the whole dose curve; as a rule, active = well fitted inhibition curve with a large enough effect; inconclusive = small, poorly fitted or top-dose-only effect; inactive = flat fitted curve, though single readings scatter. No potency is given beside an inconclusive call; the fits are too rough.
# Assay: qHTS for Inhibitors of human tyrosyl-DNA phosphodiesterase 1 (TDP1): qHTS in cells in absence of CPT; note: nearly all actives have a fitted effect of over 55% in size
# Details: DT40 Tdp1-/- hTDP1 cells, no CPT, ATP luminescence, 48 h; activity change, negative = growth inhibition: at 46.2 µM (top of the series)
# In short: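 Seeded 400 DT40-hTDP1 cells/well (vehicle DMSO, no 20 nM CPT); pinned compounds; ≥48 hr at 37 °C; CellTiter-Glo luminescence as viability measure.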
# % is set by controls: 0 for no effect and ±100 for the full control effect; potency is the fitted concentration of half-maximal effect; tags give direction and shape of the fitted curve.
SMILES,Potency,"activity change, negative = growth inhibition"
CCOC(=O)n1c(=O)n(Cc2ccc(OC)cc2)c2ccccc21,active: 16.4 µM,
COc1cccc(C(=O)N/N=C(\CC(C)C)c2ccccc2)c1,"inconclusive [inhibitor, partial curve]",
O=C(Nc1nnc(C2CCCC2)s1)C1CCC1,"inconclusive [inhibitor, single point]",
CCc1nn2c(=O)cc(COc3cccc(NC(=O)c4ccco4)c3)nc2s1,"inconclusive [inhibitor, single point]",
CCN1CCN(Cc2ccc(NC(=O)c3ccc(C)c(NC(=O)c4nccnc4N)c3)cc2C(F)(F)F)CC1,active: 20.6 µM,
O=C(CN1CCC(NC(=O)Nc2ccccc2)CC1)Nc1cccc([N+](=O)[O-])c1,"inconclusive [inhibitor, single point]",
Cc1cc(=O)oc2cc(OCCSCCN3CCOCC3)ccc12,"inconclusive [inhibitor, single point]",
CC(C)(C)c1ccc(-c2nnc(SCC(=O)NC3CC3)o2)cc1,"inconclusive [inhibitor, single point]",
CC(=O)NCCc1nc2cc(NC(=O)c3cccc([N+](=O)[O-])c3)ccc2n1C,inactive,
O=C(Nc1cccc(S(=O)(=O)Nc2ccccc2F)c1)c1ccco1,inactive,
O=C(NCCC1=CCCCC1)C1CCCN(c2nc3ccccc3o2)C1 (stereo unspecified),"inconclusive [inhibitor, single point]",
O=C(CN1CCN(S(=O)(=O)c2ccccc2)CC1)Nc1ccccc1C(=O)c1ccccc1,"inconclusive [inhibitor, single point]",
Cc1ccc(C(C)C)cc1OCC(=O)Nc1ccc(-n2cnnn2)cc1,inactive,
Cc1cc(C)c(OCCCCCNCCO)c(C)c1,,inconclusive: -31.8% [inhibitor]
O=C(N/N=C/c1ccncc1)c1ccc(NC(=O)c2cccc(Cl)c2)cc1,"inconclusive [inhibitor, partial curve]",
Cc1cccc(Nc2nc(NCc3ccco3)nc(N)c2[N+](=O)[O-])c1,inactive,
Cc1cc(C)c2nc(/N=C(\N)NC(=O)c3ccccc3)nc(C)c2c1,active: 16.4 µM,
O=C(O)c1cccc(CN2C(=O)SC(Nc3cccc4ccccc34)C2=O)c1 (stereo unspecified),inactive,
CN(CC(=O)Nc1ccccc1Br)Cc1nc2ccccc2c(=O)[nH]1,"inconclusive [inhibitor, single point]",
Cc1ccc(CNC(=O)C2CCN(S(=O)(=O)c3c(C)noc3/C=C/c3c(C)cc(C)cc3C)CC2)cc1,"inconclusive [inhibitor, single point]",
Cc1cccc(C(=O)Nc2ccc3ccccc3c2)c1,"inconclusive [inhibitor, single point]",
O=[N+]([O-])c1cccc(NC2=NCCC2)c1,inactive,
CCN1C(=O)C2C(c3ccc(O)c(OC)c3)NC(C)(C(=O)OC)C2C1=O (stereo unspecified),inactive,
Cc1cc(C)n(-c2ccc(C(=O)Nc3cc(S(=O)(=O)N(C)C)ccc3Cl)cc2)n1,"inconclusive [inhibitor, single point]",

SMILES,Potency,"activity change, negative = growth inhibition"
CCN(c1ccc(NC(=O)c2ccc(Cl)nc2)cc1)C(C)C,"inconclusive [inhibitor, single point]",
CCc1ccc2[nH]c(=O)c(Cc3ccccc3)c(O)c2c1,"inconclusive [inhibitor, single point]",
O=C1CSC(=S)N1/N=C/c1c(F)cccc1F,inactive,
Cc1ccc2nc(COc3ccccc3NC(=O)COc3ccccc3Cl)cc(=O)n2c1,inactive,
CCN(CC)C(=O)CSc1nnc(-c2ccccc2)c(-c2ccccc2)n1,"inconclusive [inhibitor, partial curve, poor fit]",
COc1cccc(NC(=O)Cc2c(O)c3ccccc3[nH]c2=O)c1,inactive,
CCOc1cc(S(=O)(=O)N2CCN(C(=O)c3ccco3)CC2)ccc1F,"inconclusive [inhibitor, single point]",
CC1(c2nnc(-c3cccc(Cl)c3)o2)CC(c2ccccc2Br)=NO1 (stereo unspecified),inactive,
O=C(Cn1c(=O)n(Cc2ccco2)c(=O)c2ccccc21)Nc1cccc(Cl)c1,"inconclusive [inhibitor, single point]",
CCN(CC(=O)Nc1c(F)cccc1F)C(=O)/C=C/c1ccc(C)cc1,"inconclusive [inhibitor, single point]",
CCCNC(=O)c1cnc2sc(N3CCCCCC3)nn2c1=O,"inconclusive [inhibitor, single point]",
Cc1ccccc1C(=O)OCc1cc(=O)n2c(C)csc2n1,"inconclusive [inhibitor, single point]",
O=c1c(-c2ccc3c(c2)OCCO3)c(C(F)(F)F)oc2cc(O)cc(O)c12,"inconclusive [inhibitor, single point]",
COc1cc(O)c2c(=O)cc(-c3ccc(OC)c(-c4c(O)cc(O)c5c(=O)cc(-c6ccc(O)cc6)oc45)c3)oc2c1,"inconclusive [inhibitor, single point]",
Cc1ccc(-c2nc(C(=O)NCC3CCCO3)cc3c2[nH]c2ccccc23)cc1 (stereo unspecified),active: 1.84 µM,
CCCN1C(=O)/C(=C/c2ccc(C)o2)SC1=Nc1ccc(OCC)cc1,"inconclusive [inhibitor, single point]",
Cc1cc(C)n(CCC(=O)N/N=C/c2ccccc2O)n1,active: 11.6 µM,
CC1(C)CC(NCc2ccccc2)=CC(=S)N1,"inconclusive [inhibitor, single point]",
O=C(/C=C/c1ccc([N+](=O)[O-])cc1)N1CCN(S(=O)(=O)c2ccccc2)CC1,"inconclusive [inhibitor, partial curve]",
O=C(CCCCCNC(=O)N1CCn2c1nc1ccccc12)NCc1ccc(Cl)cc1,"inconclusive [inhibitor, single point]",
CC(C)Cn1c(N)c(C(=O)CCl)c(=O)n(C)c1=O,"inconclusive [inhibitor, single point]",
COc1ccc(C(=O)CN(Cc2ccccc2)C2=NCCS2)cc1,"inconclusive [inhibitor, partial curve, poor fit]",
CCc1ccc(-c2cc3c(=O)n(CC(=O)NCc4ccccc4F)ncn3n2)cc1,,inconclusive: 6.68% [inhibitor]
Cc1cc(C(=O)Nc2cccc(F)c2)c2c(C)nn(-c3cccc(Cl)c3C)c2n1,"inconclusive [inhibitor, single point]",

SMILES,Potency,"activity change, negative = growth inhibition"
CCCCN1C=C(C(=O)OC)C(c2ccccc2C(F)(F)F)C(C(=O)OC)=C1,inactive,
CCOc1ccc(C(=O)Nc2ccccc2OCc2cc(=O)n3ccccc3n2)cc1,inactive,
Cc1cc(C(=O)COC(=O)C2CCN(C(=O)c3ccc(Cl)cc3)CC2)c(C)n1CC1CCCO1 (stereo unspecified),"inconclusive [inhibitor, single point]",
O=C(COc1ncnc2ccccc12)Nc1ccc(Cl)c(S(=O)(=O)N2CCOCC2)c1,inactive,
Cc1ccc(C)c(CN2CCC(n3nccc3NC(=O)C3CCCC3)CC2)c1,inactive,
O=C(Cn1cnc2c(cnn2-c2ccc(F)cc2)c1=O)N1CCN(c2ccccc2F)CC1,inactive,
CCCCNC(=O)/C(C#N)=C/c1ccc(-c2ccc(S(=O)(=O)N3CCOCC3)cc2)o1,active: 10.3 µM,
O=C(CN(c1cccc([N+](=O)[O-])c1)S(=O)(=O)c1ccccc1)N1CCCCC1,inactive,
Oc1cc(-c2nc3ccccc3s2)cc2c1OCCN(Cc1cccn1-c1ccc(Cl)cn1)C2,"inconclusive [inhibitor, single point]",
Cn1c(-[n+]2c(-c3ccccc3)cc(-c3ccccc3)cc2-c2ccccc2)nc2c([N+](=O)[O-])cccc21,active: 18.4 µM,
CCCC1(c2ccccc2)NC(=O)N(CC(=O)Nc2ccc3c(c2)OCCO3)C1=O (stereo unspecified),"inconclusive [inhibitor, single point]",
COc1ccccc1OCCCCn1c(-c2ccc(Cl)cc2)nc2ccccc2c1=O,inactive,
CC1=NC(=O)C(N=Nc2cccc(O)c2)N1c1ccccc1 (stereo unspecified),"inconclusive [inhibitor, partial curve]",
COc1ccccc1-n1nnnc1SCC(=O)NC1CC1,,inconclusive: -37.9% [inhibitor]
Cc1cc2cc(CCNC(=O)c3ccc(S(=O)(=O)N4CCOCC4)cc3)c(=O)[nH]c2cc1C,active: 18.4 µM,
CN(C)c1ccc(C(=O)Nc2cccc(-c3nc4cccnc4s3)c2)cc1,active: 10.3 µM,
NC(=O)CSc1nc2scc(-c3ccc(Cl)cc3)c2c(=O)n1Cc1ccccc1,active: 8.2 µM,
CC(C)Cn1c(=O)c(C(=O)NCc2ccc3c(c2)OCO3)c(O)c2ccccc21,"inconclusive [inhibitor, single point]",
CCN(CC)S(=O)(=O)c1ccc(NC(=S)NC(=O)CC(C)C)cc1,"inconclusive [inhibitor, single point]",
CCc1ccc(-c2cn3c(n2)SCC3)cc1,inactive,
CCn1c(CCNC(=O)c2ccc(Cl)c(Cl)c2)nnc1SCCOc1ccc(OC)cc1,"inconclusive [inhibitor, single point]",
Cc1cc(O)c(-c2cc(C(=O)Nc3ccc(S(=O)(=O)N4CCOCC4)cc3)[nH]n2)cc1C,active: 18.4 µM,
CCn1c(=NC(=O)CS(=O)(=O)c2ccccc2)sc2cccc(OC)c21,active: 13 µM,
